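48-hour exposure, single concentration, 96-well plates; percent growth endpoint where 0 means no net growth. Active: below 10.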 For part of its entries the source gives two or more results. Only these are listed. An entry can have further records. The screen tested this drug many times, at the concentration stated with the values; one value stands for one run. Counts like (3×) count equal records among those shown.
Tested on: LXFL 529 NSCLC
Test: NCI-60 one-dose screen, 48 h (100 = growth as untreated, 0 = no growth, -100 = all killed)
Settings: 2.5 mM
Method: Growth inhibition of the LXFL 529 human Non-Small Cell Lung tumor cell line is measured as a screen for anti-cancer activity. Cells are grown in 96 well plates and exposed to the test compound for 48 hours. Compounds are tested at a single concentration, which is 10^-5 M for most compounds. The reported endpoint is percent growth (GI% or GIPRCNT), where numbers from 0 - 100% represent growth inhibition, and numbers from -100% - 0 represent cell death. For example, a value of 40 represents 60% growth inhibition. A value of 0 means no net growth occurred over the course of the experiment. A value of -40 indicates 40% of cells at the beginning of the experiment died by the end of the experiment. A value of -100 means all cells are dead at the end of the experiment.
NCI-60 Human Tumor Cell Lines Screen was performed using the standard one-dose NCI protocol, which is described in more detail at https://dtp.cancer.gov/discovery_development/nci-60/default.htm.
Compounds with GIPRCNT values below 10 were considered active. Activity score was based on GIPRCNT using the following formula: […]
Score is 0 for GIPRCNT values of 100 or above, 50 for GIPRCNT values of 0, and 100 for GIPRCNT values of -100.

Structure (SMILES): O=c1[nH]cc(F)c(=O)[nH]1
- growth (runs of 1991): 32.3, 29.8, 23.1, 31.8, 28.7, 26.5, 23.3, 36.5, 21.8, 28.6, 29.6%
- growth (runs of 1992): 33.8, 31.9 (2×), 32.4, 34.4, 32.3 (2×), 28.9, 31.8, 30.7, 30, 21.4 (2×), 20.8, 15.2, 22.2, 13.1, 39.4, 16.6, 25.1, 25.9, 27.6, 31.5, 38.4, 33.5, 22.1 (2×), 29.4, 30.4, 2.5, 22.9, 10.8, 30.1, 27.3 (2×), 22.8, 31.7, 33.3, 24.4 (2×), 34.2, 13.8, 27.7 (2×), 26.9, 23.8, 28.2, 33.7, 27.2, 26.3, 29.5, 28.5, 28.7, 26.7, 27.4, 26.8 (2×), 16.5, 19.7, 31.4, 23.4, 29.7, 28.1, 37.5, 28.8 (2×), 21.1, 32.2, 28.6, 35.2, 23.9, 23.1, 23.5, 33.4 (3×), 32.8, 31, 29.3, 35.9, 26.2, 33.6, 33, 24.7, 29.9, 35.7, 38.2, 32.9, 28.4%

Reference: PubChem BioAssay AID1794737 (DTP/NCI, 2022)
